Results published in PubChem BioAssay AID588795 (National Center for Advancing Translational Sciences (NCATS), 2011).
In all, about 390,000 compounds went through this assay and about 1,400 (0.36%) were called active. Inconclusive means that the source gave no clear call. Such entries were picked first, then a sample of the others. Calls come from the whole dose curve; as a rule, active = well fitted inhibition curve with a large enough effect; inconclusive = small, poorly fitted or top-dose-only effect; inactive = no such curve, though single readings can be large or run the other way. Where the call is inconclusive, the potency comes from a doubtful curve fit.

What follows are compounds tested against Flap endonuclease 1 (Homo sapiens) (UniProt P39748) (assay: qHTS Assay for the Inhibitors of Human Flap endonuclease 1 (FEN1).). Settings: Recombinant FEN1 flap cleavage, fluorescence, 15 min; series mostly up to 114 µM.
Sequence of UniProt P39748 (P39748 whole entry, looked up): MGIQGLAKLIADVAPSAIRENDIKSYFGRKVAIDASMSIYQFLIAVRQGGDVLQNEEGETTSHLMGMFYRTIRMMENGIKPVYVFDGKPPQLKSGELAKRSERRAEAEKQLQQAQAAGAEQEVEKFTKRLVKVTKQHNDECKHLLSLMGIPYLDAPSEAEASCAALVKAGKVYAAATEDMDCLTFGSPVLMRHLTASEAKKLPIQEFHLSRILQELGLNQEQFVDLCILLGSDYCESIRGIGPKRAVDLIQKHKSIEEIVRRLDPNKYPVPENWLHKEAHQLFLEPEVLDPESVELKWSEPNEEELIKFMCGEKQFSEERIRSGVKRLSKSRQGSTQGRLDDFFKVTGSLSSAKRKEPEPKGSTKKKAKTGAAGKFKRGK
In short: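 Recombinant FEN1 (10 nM) was preincubated with pin-transferred compounds for 15 min at room temperature, then flap DNA substrate (50 nM final) was added. Plates were read at 0 and 15 min, and normalized concentration–response data were fitted to a four-parameter Hill equation.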
Note: nearly all actives have a fitted effect of over 65% in size.
Potency is the fitted concentration of half-maximal effect; tags give direction and shape of the fitted curve.

| Structure (SMILES) | Potency |
| --- | --- |
| COc1ccc(N/N=C(/C#N)S(=O)(=O)c2nsc(C)c2C#N)cc1 | inactive |
| Nc1cc(=O)[nH]c(SCC(=O)Nc2ccc3c(c2)CCC3)n1 | inactive |
| CCCOc1cccc(C2C(C(=O)c3ccc(C)o3)=C(O)C(=O)N2c2nc(C)c(C(C)=O)s2)c1 (configuration not stated) | inconclusive: 89.1 µM [inhibitor, partial curve, poor fit] |
| COc1ccccc1NS(=O)(=O)c1cc(NC(=O)c2cccnc2)ccc1N1CCCCC1 | inconclusive: 50.1 µM [inhibitor, partial curve, poor fit] |
| COc1ccc(OC)c(-c2csc(N(CC3CCCO3)C(=O)C3CCCCC3)n2)c1 (configuration not stated) | inconclusive: 89.1 µM [inhibitor, single point] |
| COc1ccc(S(N)(=O)=O)cc1C(=O)NNC(=O)CN(C)S(=O)(=O)c1ccc(Cl)cc1 | inactive |
| CN(c1ccccc1)c1ccc(/C=C(/CCC(=O)O)c2nc3ccccc3s2)cc1[N+](=O)[O-] | active: 50.1 µM |
| C=CCc1cccc(CNc2cnc3ccccc3c2)c1O | inconclusive: 15.8 µM [inhibitor, partial curve, poor fit] |
| Cc1c2cnccc2c(C)c2c1c1ccccc1n2CCOC(=O)c1ccccc1 | inconclusive: 8.91 µM [inhibitor, partial curve, poor fit] |
| Cc1nc2c(c(C)c1CCC(=O)NCc1ccc(Cl)cc1)c(=O)n(C)c(=O)n2C | inconclusive: 25.1 µM [inhibitor, single point] |
| Cn1cc(C2=C(c3cn(CCCSC(=N)N)c4ccccc34)C(=O)NC2=O)c2ccccc21 | inactive |
| CCC(C)n1c(NC(=O)c2ccccc2)c(C#N)c2nc3ccccc3nc21 (configuration not stated) | inconclusive: 50.1 µM [inhibitor, partial curve, poor fit] |
| Cc1ccc(-c2cc(-c3n[nH]c(=S)o3)c3ccccc3n2)cc1 | inconclusive: 28.2 µM [inhibitor, single point] |
| CCN1CCN(c2cc(C)c3cc(NC(=O)c4ccc5c(c4)OCO5)ccc3n2)CC1 | inconclusive: 50.1 µM [inhibitor, partial curve] |
| Cc1ccc(CNc2ncnc3onc(-c4ccc(F)cc4)c23)cc1 | inactive |
| Cn1nc(C(F)(F)F)c(/C=N/OC(=O)c2ccccc2)c1SCc1ccccc1Cl | inconclusive: 100 µM [inhibitor, partial curve, poor fit] |
| COc1ccc(-c2csc(/C(C#N)=C\c3ccc(O)c([N+](=O)[O-])c3)n2)cc1OC | inactive |
| O=C(O)CN1C(=O)/C(=C\c2cc(Br)ccc2OCc2ccc([N+](=O)[O-])cc2)SC1=S | inconclusive: 50.1 µM [inhibitor, partial curve, poor fit] |
| CN(C)/C=C1\SC(=S)N(c2ccc(Br)cc2)C1=O | inconclusive: 56.2 µM [inhibitor, partial curve, poor fit] |
| Clc1ccc(OCCn2cnc3ccccc32)cc1 | inactive |
| CCN(C(=O)c1cc2c(C)nc3ccccc3c2o1)c1cc(Cl)ccc1OC | inconclusive: 50.1 µM [inhibitor, partial curve, poor fit] |

| Structure (SMILES) | Potency |
| --- | --- |
| CCN(C(=O)COC(=O)c1cccnc1)c1cccc2ccccc12 | inactive |
| COc1cccc(C(=O)c2cn(CC(=O)NCc3ccccc3Cl)c3nc(C)ccc3c2=O)c1 | inconclusive: 79.4 µM [inhibitor, partial curve, poor fit] |
| COc1ccc(C(=O)Nc2cc(C)c(O)c(-c3nc4ccccc4s3)c2)cc1OC | inactive |
| COc1ccc(-c2nnc(Nc3ccc(S(=O)(=O)Nc4nccs4)cc3)c3ccccc23)cc1 | inconclusive: 89.1 µM [inhibitor, single point] |
| Cc1cccc(/C(N)=N/OC(=O)CCCN2C(=O)c3ccccc3C2=O)c1 | inactive |
| NC(=O)c1cc(NC(=O)c2cc(Br)c(Br)s2)cc(C(N)=O)c1 | inconclusive: 89.1 µM [inhibitor, partial curve, poor fit] |
| CC(NC(=O)Cc1ccc(NC(=O)N2CCSc3ncccc32)cc1)c1ccccc1 (configuration not stated) | inactive |
| Cc1ccc(-c2c(C(=O)N/N=C/c3ccc(OC(C)C)cc3)nnn2-c2nonc2N)cc1 | inconclusive: 10 µM [inhibitor, partial curve, poor fit] |
| COc1ccc(OC)c2c1C(=O)C(Cl)=C(Cl)C2=O | inconclusive: 56.2 µM [inhibitor, partial curve, poor fit] |
| CCc1cccc(NC(=O)Cn2nc(-c3cc(C)ccc3C)ccc2=O)c1 | inconclusive: 56.2 µM [inhibitor, partial curve, poor fit] |
| CN(Cc1ccccc1)c1ccc(C(CC(N)=O)NC(=O)c2ccccc2)cc1[N+](=O)[O-] (configuration not stated) | inconclusive: 89.1 µM [inhibitor, partial curve, poor fit] |
| CN1CCN(c2ccc(NC(=O)c3ccc(-c4cccc([N+](=O)[O-])c4)o3)cc2)CC1 | inconclusive: 25.1 µM [inhibitor, full curve, poor fit] |
| CN(C)S(=O)(=O)c1cccc(NC(=O)COC(=O)/C=C/c2ccc(Br)o2)c1 | inactive |
| COc1ccc(OC)c(-c2c3cc(O)c(=O)cc-3oc3cc(O)c(O)cc23)c1 | active: 12.6 µM |
| COc1cccc(C(=O)CC(=O)C(=O)Nc2cc(OC)ccc2OC)c1 | inconclusive: 31.6 µM [inhibitor, full curve] |
| O=C1c2cccc3cccc(c23)C(=O)N1CCN1CCN(CC(O)COCc2ccc(Cl)cc2)CC1 (configuration not stated) | inconclusive: 31.6 µM [inhibitor, full curve] |
| N#Cc1c(-c2ccccc2)[nH]c(=S)[nH]c1=O | inactive |
| CC(C)(C)c1ccc(C(=O)O[C@H]2[C@H](Cc3ccccc3)NS(=O)(=O)[C@H]3C[C@@H]4C=C[C@]23O4)cc1 | inconclusive: 70.8 µM [inhibitor, partial curve, poor fit] |
| Cn1c(=O)c(NCCc2ccccc2)c2c3c(cccc31)C(=O)c1ccccc1-2 | active: 56.2 µM |
| CN(C)CCCN(C(=O)c1ccc(S(=O)(=O)N2CCc3ccccc3C2)cc1)c1nc2ccc(F)cc2s1 | inconclusive: 56.2 µM [inhibitor, partial curve] |
| CCOC(=O)C1CCN(C(=O)c2ccc3c(c2)sc2nc(-c4ccc(OC)cc4)cn23)CC1 | inconclusive: 89.1 µM [inhibitor, single point] |

| Structure (SMILES) | Potency |
| --- | --- |
| C=CCc1cccc2cc(C(=O)Nc3ccc(S(=O)(=O)Nc4nnc(CC)s4)cc3)c(=O)oc12 | active: 39.8 µM |
| Cc1cc(OCC(=O)NCCc2c[nH]c3ccccc23)c2c(C)cc(=O)oc2c1 | inconclusive: 70.8 µM [inhibitor, partial curve, poor fit] |
| CCOC(=O)c1c(CNc2ccncc2)n(C)c2cc(Br)c(O)cc12 | inconclusive: 25.1 µM [inhibitor, full curve] |
| Nc1ccc(-c2nc3c(Cl)cc(N)cc3[nH]2)cc1 | inconclusive: 79.4 µM [inhibitor, single point] |
| COCCN=c1scc(-c2cc(OC)c(OC)c(OC)c2)n1/N=C/c1c(C)[nH]c2ccccc12 | inconclusive: 100 µM [inhibitor, partial curve, poor fit] |
| CC1CCN(C2=NN3C(=N)/C(=C\c4ccc(OC(=O)c5ccco5)cc4)C(=O)N=C3S2)CC1 | inconclusive: 50.1 µM [inhibitor, partial curve, poor fit] |
| CC(=O)Nc1ccc(NC(=O)C(C)OC(=O)/C(C#N)=C/c2ccc(N(C)C)cc2)cc1 (configuration not stated) | inconclusive: 89.1 µM [inhibitor, single point] |
| COc1ccccc1NC(C)C(=O)c1c(C)[nH]c2ccccc12 (configuration not stated) | inconclusive: 79.4 µM [inhibitor, partial curve, poor fit] |
| CC1(C)CC(N=c2cc(-c3ccccc3)oc3ccc(Cl)cc23)CC(C)(C)N1 | active: 28.2 µM |
| CC(C)n1cnc2c(Nc3cccc(Cl)c3)nc(NCCCO)nc21 | inconclusive: 79.4 µM [inhibitor, partial curve, poor fit] |
| Cc1cnc(/C=C/c2ccc(N(C)C)cc2)cn1 | inconclusive: 50.1 µM [inhibitor, partial curve, poor fit] |
| Cc1ccc(O)c(N=Cc2cc(Cc3ccccc3)cc([N+](=O)[O-])c2O)c1 | inconclusive: 50.1 µM [inhibitor, partial curve] |
| Cn1c(C(=O)NCCc2ccccc2)cc2sc(Cl)cc21 | inactive |
| COc1ccc(OC)c(NC(=O)Nc2nnc(N3CCC(C)CC3)s2)c1 | inconclusive: 89.1 µM [inhibitor, partial curve, poor fit] |
| O=C(O)c1ccc(Nc2nc(-c3ccc([N+](=O)[O-])cc3)nc3ccccc23)cc1 | inconclusive: 15.8 µM [inhibitor, full curve] |
| O=C(Nc1nc(-c2ccco2)c(-c2ccco2)s1)C1CCC1 | inactive |
| CC(C)c1ccc(NC(=O)C2CCCN2S(=O)(=O)c2ccc3nc(-c4ccccc4)[nH]c3c2)cc1 (configuration not stated) | inconclusive: 44.7 µM [inhibitor, partial curve, poor fit] |
| CCN(CC)C(=O)COc1ccc2c(-c3ccc(OC)cc3)cc(=O)oc2c1 | inactive |
| Cc1ccc(NC(=O)COC(=O)c2ccc([N+](=O)[O-])o2)cc1S(=O)(=O)N1CCCCC1 | inconclusive: 44.7 µM [inhibitor, partial curve] |
| CN(C(=O)COC(=O)c1cc(-c2ccccc2Cl)nc2ccccc12)C1CCS(=O)(=O)C1 (configuration not stated) | inconclusive: 89.1 µM [inhibitor, single point] |
